From paper PMC12136788
This is one part of the list.

T1: UNK ZnF1-3 (human, UniProt Q9C0B0 31-174)
T1 sequence: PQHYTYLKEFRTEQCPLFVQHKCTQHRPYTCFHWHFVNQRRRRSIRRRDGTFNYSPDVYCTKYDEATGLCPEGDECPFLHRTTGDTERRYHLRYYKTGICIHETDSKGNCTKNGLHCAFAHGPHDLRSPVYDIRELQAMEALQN

B1: chr7:130129250:130129251:+_ENSMUSG00000030779_ENSMUST00000052135|mus_hu|FALSE|FALSE (ssRNA)
RNA: GGGAGUUCUACAGUCCGACGAUCCUCCUCUGGUAAGAAGGGAGGUUUCUCUUUCUUCCCAAUUGCAUAUGCUUCUGCAUCUAUAGUUGGUAUUGCAUAUUUUCCAGUGUUGGUAAGCAUUGCACCUUUCAUAUUAGGAUCUUUCAACAGAGGAUUGAGCAUCA
B2: chr5:21280853:21280854:-_ENSMUSG00000029014_ENSMUST00000030771|mus_hu|FALSE|FALSE (ssRNA)
RNA: GGGAGUUCUACAGUCCGACGAUCCUUUGCUUCACUUUUAGAAGGAACUGAGUUAUCAAAAGUAGGAUCUACACUGUUAAAUGCUCGUCUUUUCACUGGAUCAGAUAACAUUUCAUAAGCUUUAGUUAUGCAAGUGAAGUAGUCCAACAGAGGAUUGAGCAUCA
B3: chr10:24872911:24872912:-_ENSG00000107863_ENST00000396432|hu_hu|FALSE|FALSE (ssRNA)
RNA: GGGAGUUCUACAGUCCGACGAUCUAAUGAUAUCUGUUACCAAUAAAACGCAUUCGUUUAUUCAAUGUAAGUAAGUUAUCUAAUUUUAACAAUAUGGCACCCUAAAAACCAACUGUAUUUUUAUGAUGAGGCACUUUUGUUAGUCAACAGAGGAUUGAGCAUCA
B4: chr11:46405157:46405158:+_ENSG00000110492_ENST00000395566|hu_hu|hu_hu_hu_mus_False|8_28 (ssRNA)
RNA: GGGAGUUCUACAGUCCGACGAUCCCCUCCCCACUUUGGGCACUUGGUGUGGGCGUGAGAGGACAGGCGUGAUUGACAGAGCUGACAGGAAGACAAAAGGCACUGGUGGGUCACAUCUUGGGCCUGUGAGAGGGAGGGGCUCCGCAACAGAGGAUUGAGCAUCA
B5: chr6:36694466:36694467:-_ENSMUSG00000029838_ENSMUST00000101534|mus_mus|motif|central (ssRNA)
RNA: GGGAGUUCUACAGUCCGACGAUCCUCAGCAGUGUCCACAGCUGCCAAGAUGAAAAUCAAUGCCAGGAAGGCAGCUGCAAAUUUUCGGCGUUGCUGCUGAUAUUGCUGGGACGACAUUUUUUGGCUUGCAGAGGUCCUCGCUGACAACAGAGGAUUGAGCAUCA
B6: chr18:32917252:32917253:-_ENSG00000172466_ENST00000399061|hu_mus|FALSE|FALSE (ssRNA)
RNA: GGGAGUUCUACAGUCCGACGAUCUUCUUAAACCUUCACAACAUUCAAAAGUUUUUCUGCAUUGUGUCGUCUCUGAUGUCUGAAGAGGUUUGAGCUCUGACUGUAGGAUUUCCCACACUGCACACACUCGUAAGGUUUCUCCCCCAACAGAGGAUUGAGCAUCA
B7: chr11:72497679:72497680:+_ENSMUSG00000020794_ENSMUST00000021148|mus_hu|motif|central (ssRNA)
RNA: GGGAGUUCUACAGUCCGACGAUCAUUGCUAUAUCCAAUCCAAGAGGUGGGUGCAACUAGAAUACAAAAAGGACAAAGCACCGGGUGAUGACUCCUUCGAAGUCAUCAUUAAAAAUCAAGUAAUUGCUCAUUAAGUAUUUCAGUCAACAGAGGAUUGAGCAUCA
B8: chr7:52703327:52703328:+_ENSMUSG00000003865_ENSMUST00000003964|mus_hu|FALSE|FALSE (ssRNA)
RNA: GGGAGUUCUACAGUCCGACGAUCCACCUUCACCCUGUCGGCACUGCUAUUGAAGAGGCCGAUUCGGCGGAUGGUGGUCAGGAUGGGGUCUGAGGAGUCAUCCAGCAUAUUGUGGGUGCACACAGGGGGGAAAGACUGCCGCUGCAACAGAGGAUUGAGCAUCA
B9: chrX:71549762:71549763:+_ENSMUSG00000019087_ENSMUST00000019231|mus_mus|mus_mus_mus_hu_False|18_18 (ssRNA)
RNA: GGGAGUUCUACAGUCCGACGAUCAAACCCGUGUACUUCUUAUUGUUAGCACAACAUCACCAGAAAACGAUAACGACAGCCAAGCAGGACAGACAGUUAAGUAGUACUUCCACACUCCGCAAAUUCAGGAGCCCUAUAACCUUACAACAGAGGAUUGAGCAUCA
B10: 78181470_78183588_2034_CDS_ENSG00000077254_ENST00000357428|human|control|control (ssRNA)
RNA: GGGAGUUCUACAGUCCGACGAUCUGAAACUUCAGUGACACUCUGAUCAUCAAAUUCAUACCAGAGAUUAUUUAGAUUGUUUCGGCAGUAGGCUAUAUAGUGUCCACUACUUGCAGUUCCAUGAUGGCAAAUGACUGACAGAAGCAACAGAGGAUUGAGCAUCA
B11: 59172640_59175087_1077_CDS_ENSMUSG00000025235_ENSMUST00000026265|mouse|control|control (ssRNA)
RNA: GGGAGUUCUACAGUCCGACGAUCUAUAUCUUCCAGGUUGGUCAGAGCCACAGCCAAGAGCAUGUAGAGUUCCCCCAUCUUUGGCUGGAAGUUGAUGGCUGCACUGAGAAAAUGGAAUGCUGAUGCAUACUGCUGCAUAGUCAACAACAGAGGAUUGAGCAUCA
B12: chr3:197678047:197678048:+_ENSG00000182899_ENST00000448864|hu_hu|FALSE|FALSE (ssRNA)
RNA: GGGAGUUCUACAGUCCGACGAUCUUAAGAAGAGCUGUGUGCUCCCUUUGGUUCCGGAGACCCCGCUUAUAGCCAGCAAAAAUGGCCUUGGACCACAGCCUUCCAGACAUAGUUCCUUUUAGAAGUCCCGUUCCCAGCAGGCCGCAACAGAGGAUUGAGCAUCA
B13: chr18:58105177:58105178:+_ENSMUSG00000024597_ENSMUST00000115366|mus_mus|motif|central (ssRNA)
RNA: GGGAGUUCUACAGUCCGACGAUCUAACGUCUUGCUUGACCUGACUUGACUGUUUACUUAAAAAAAGAAAAAGAAAAAACGGAAACAACAACAAAAAAAUAUCUGUAAUCUACCAAAUCGUGAUCACUUUAAAAUCUGAAACACCAACAGAGGAUUGAGCAUCA
B14: chr3:58389919:58389920:+_ENSMUSG00000075700_ENSMUST00000107924|mus_hu|FALSE|FALSE (ssRNA)
RNA: GGGAGUUCUACAGUCCGACGAUCGCUAGGAGCUUGCAUGCCAAAGAAAGCAAAAGGAUCCUUGCCAACAAUUAUUAAGCCUAUUAAUACUAGUUUGAAGACUGACAGGAAAGAUGCUAUGUGUCUAUAUAUUGGUUGAGGGAGCAACAGAGGAUUGAGCAUCA
B15: chr8:11781157:11781158:+_ENSMUSG00000031511_ENSMUST00000110909|mus_mus|motif|central (ssRNA)
RNA: GGGAGUUCUACAGUCCGACGAUCCAAGGAGCUGAGGACCUUGUUAAAGUUCUGCCCCUGAUACAAAUCAUUUGCAUCAAAAGUCUCGGGGCGCAGGGACGCCCCGCAGGCGCGCAGGAACUCGCGGAUGUUGCUCAGGCACUCCAACAGAGGAUUGAGCAUCA
B16: chr19:16212804:16212805:+_ENSG00000167460_ENST00000300933|hu_mus|hu_hu_hu_mus_False|48_48 (ssRNA)
RNA: GGGAGUUCUACAGUCCGACGAUCAACAAUUCUGGAGUGAAGGAAAGAUGUAACAUGGAACAGCAUUAAAGCUCAGUCAGAAGGCACGUGGGUAAUUAUGAUCACCCCAGCAUUCUCGCUUGGAAUGCUUAAAGACAAUCUGUUCAACAGAGGAUUGAGCAUCA
B17: chr11:4127340:4127341:+_ENSG00000167325_ENST00000300738|hu_mus|hu_hu_hu_mus_False|28_98 (ssRNA)
RNA: GGGAGUUCUACAGUCCGACGAUCGGCAUAGUCAGGGUGCUUAGUAGUCAAGGUCGCGGCUGUCUCAGCAGCCAGGGUGUCCAGUUCCACUGUGGUGACCCCACUAUACAAGCCUUGGAUUACUUUCAUGGUGAUCUGAGCAGGCAACAGAGGAUUGAGCAUCA
B18: chr5:64892317:64892318:-_ENSG00000113595_ENST00000231524|hu_mus|FALSE|FALSE (ssRNA)
RNA: GGGAGUUCUACAGUCCGACGAUCAGCUUGUGUAUUGAGGUAAUAAUGUUUCCACAAUGGUCUUAAUUUGUGUUUUCCACCCACAUCCCAAAUGGUGAAUUUUAGAUUUUUGUAUUCCACAGUUUCCACAUUAAAACCAAUUGUCAACAGAGGAUUGAGCAUCA
B19: chr1:163122491:163122492:-_ENSG00000143248_ENST00000313961|hu_mus|FALSE|FALSE (ssRNA)
RNA: GGGAGUUCUACAGUCCGACGAUCGGCAACCCAGAACUCAAGGUUUUCCUCACUGAAUUCAGACUUCAGGAAACUUUUGAAGCUGGCAAAUCCAUAGCUGUUCUGGAGAAGCUUGUCCAGGGACUGGCGCCACUGCAGGACCUCCAACAGAGGAUUGAGCAUCA
B20: chr7:26236612:26236613:-_ENSG00000122566_ENST00000356674|hu_hu|motif|central (ssRNA)
RNA: GGGAGUUCUACAGUCCGACGAUCAACAAACAGCUUCUUCACAGUUACAUGAGCCCCUGGUUUUCCAGAUUCCUCUCUUGCGGCAGCACGUUUUGGCUCAACUACUCUCCCAUCAAUUGAAUGAGGUCUUGCAGCCAUGGCAGCCAACAGAGGAUUGAGCAUCA
B21: chr5:92873050:92873051:-_ENSMUSG00000029426_ENSMUST00000031377|mus_mus|FALSE|FALSE (ssRNA)
RNA: GGGAGUUCUACAGUCCGACGAUCUCCCAGGGCCCAACCACAAAAAGUUUCUACACAAGUUUAUUAAAUACUUCCUAGACACAUGAACACAGUUUUAGAGACACGAUUUUAUAAAGCAGAAUUGCCAGCCAUGUCACCCUGCUCCAACAGAGGAUUGAGCAUCA
B22: chr1:186326634:186326635:-_ENSG00000047410_ENST00000367478|hu_hu|FALSE|FALSE (ssRNA)
RNA: GGGAGUUCUACAGUCCGACGAUCGGCCACUAAGAGACGUUGAUUUUGUUGUUGAAGCUCUUCAAUAUUUCUGUAAGAUACUAGAUGCUGUGAUAUUACCUCAGAUGAACUACUUAUAUCAGCAGAGCUUACUUCCUCAUCACGCAACAGAGGAUUGAGCAUCA

The binders below were run against T1, UNK ZnF1-3 (assay: nsRBNS (natural sequence RNA bind-n-seq); RBNS binding buffer (assumed for nsRBNS): 25 mM Tris pH 7.5, 150 mM KCl, 3 mM MgCl2, 0.01% Triton X-100, 500 ug/ml BSA, 20 U/ml SUPERase-In, 4 C; UNK is unkempt and MSI1 is Musashi-1; names of the RNAs are library labels; protein concentration not given here; high values mean tight binding).

In order of rising binding signal:
1. B1  0.404 enrichment R
2. B3  0.642 enrichment R
3. B5  0.693 enrichment R
4. B2  0.845 enrichment R
5. B12  0.857 enrichment R
6. B22  0.904 enrichment R
7. B15  0.946 enrichment R
8. B18  0.951 enrichment R
9. B17  0.965 enrichment R
10. B8  0.978 enrichment R
11. B16  1.1 enrichment R
12. B20  1.1 enrichment R
13. B6  1.2 enrichment R
14. B19  1.21 enrichment R
15. B10  1.27 enrichment R
16. B11  1.35 enrichment R
17. B9  1.55 enrichment R
18. B14  1.75 enrichment R
19. B7  1.98 enrichment R
20. B21  2.01 enrichment R
21. B4  2.37 enrichment R
22. B13  2.7 enrichment R
